Data from PMC5515408.
Some of the results follow. At the low end of the ranking, values are background and their order means little.

Test system: MYC (p64) + MAX (p21), in MYC:MAX
Assay: protein-binding microarray (anti-MAX antibody)
Conditions: PBM: 15 mM Tris-HCl pH 7.5, 100 mM KCl, 0.075% NP40, 7.5 mM beta-mercaptoethanol, 375 ng/ul BSA, 8 ng/ul poly(dA-dT):(dA-dT), 550 ng complex, 60 min, room …; high values mean tight binding; double strand, one strand shown; sequences stand for … in CCGGC…TTAATAGCTAAGATTACTATATCGACG

Sequence | binding signal (log2 normalized fluorescence)
CGACACGTCGTA | 0.338
TGAGAGAAGGTA | -0.176
TGACTATATGTA | 0.0227
TGATCTCTGGTA | -0.209
TGAGCGGATGTA | -0.0384
TGAACCCTCGTA | 0.0755
TGAGTAATAGTA | -0.161
TGATGGTGAGTA | 0.0493
TGACGGGACGTA | 0.123
TGACCCCTCGTA | 0.296
TGACTTGTAGTA | 0.0926
TGACTTAATGTA | 0.12
TGAAAACCCGTA | 0.0927
TGAGTCGGCGTA | -0.0133
TGACACGTGTTC | 0.738
TGAAGGGGTGTA | 0.418
TGATAACTTGTA | 0.0225
TGCCACGTGATA | 0.881
AGCTACGTGGTA | 0.389
TGACCCGTTGTG | 0.189
ATGAGTATTCGC | 0.311
TGACACGCCGTC | 0.368
TGATTGTGGGTA | 0.0321
TGATGAAGTGTA | -0.0759
TGACCCTTAGTA | 0.0901

Sequence | binding signal (log2 normalized fluorescence)
TCACGATGGGGC | 0.398
TGACCGCTTGTA | 0.252
TGGGGCGTGGTA | 0.471
TGACGTGCAGTA | 0.418
TGAAATCGCGTA | 0.18
TGATAACAAGTA | -0.0262
TGATTGAATGTA | -0.104
TGATGTGATGTA | 0.165
TGACACGTTGCA | 0.792
TGAGGAACAGTA | -0.00619
TGAGGTATCGTA | -0.0909
TGAAGCAAGGTA | 0.37
TGAGGAATCGTA | -0.205
TGCTTCGTGGTA | 0.286
TGAAGCTGGGTA | -0.0941
TGAATCTGGGTA | -0.0547
TGAGGACCTGTA | 0.0336
TGAAGAAACGTA | -0.0283
TGATTCCGGGTA | -0.26
TGAAGGTTTGTA | 0.0558
TGACGAATTGTA | -0.0771
TGATTGCATGTA | 0.261
TGGCAAGGGGTA | 0.235
AGACACGAGGTT | 0.64
TGAAAAGGGGTA | 0.161

Sequence | binding signal (log2 normalized fluorescence)
TTTACATATAAT | 0.255
TGAATGGCTGTA | 0.155
TGACCCGATGTA | 0.291
TGATATGCAGTA | 0.103
TGATCGCTGGTA | -0.12
TGAGCTTTCGTA | 0.0217
TGAAGAATCGTA | 0.0539
TGACCAAGAGTA | 0.0715
TGAAGGTATGTA | 0.216
TATGATTACGTC | -0.0777
TGAGCACCGGTA | 0.257
TGAGGCCAGGTA | -0.0646
TGTCCCGTGGTA | 0.344
TGAAAGCTCGTA | -0.115
TGACATGCCGTA | 0.332
TGACAAGACGTA | 0.244
TGAGTCCATGTA | 0.245
TGAAACTGAGTA | 0.00205
TGATTAACCGTA | 0.0582
TGATGACCAGTA | -0.073
TGAAATCCAGTA | 0.0553
TGAGTTCGGGTA | -0.228
TTTTACGTGGTA | 0.313
TGAGCACGAGTA | 0.508
TGAGTTTTAGTA | -0.0871

Sequence | binding signal (log2 normalized fluorescence)
TGAGCGAACGTA | 0.18
TGAATAGGGGTA | 0.121
AGACACGTCGTA | 0.32
TGACAGTTGGTA | 0.112
TCACACGGGTTA | 0.461
TGACACGTAGAA | 0.388
TGAAGTCTTGTA | -0.149
TGAGTTCAAGTA | -0.0465
TGACGAAATGTA | -0.0918
TGATCACCTGTA | 0.245
TGATGATGAGTA | -0.0716
TGACCAAGTGTA | 0.214
TGACTAGTGTTA | 0.197
TGAGCGCGGGTA | 0.184
TGATTAGAGGTA | -0.127
TGACGTCCCGTA | 0.132
TGAGCGGAAGTA | -0.124
GGTCACGTGGTA | 0.805
TGATACGGGGAA | -0.00569
TGATGATTCGTA | -0.0178
TGAATGACAGTA | 0.0219
TGATCCACCGTA | 0.16
TGAAACGAGGCA | 0.405
TGATATTGAGTA | 0.0488
TGAGTGCATGTA | 0.195

Sequence | binding signal (log2 normalized fluorescence)
TGAACTTGCGTA | 0.264
TGAGTGCTCGTA | 0.257
TGACAGGCTGTA | 0.315
TTCGATCCTGCA | 0.122
TGAGTGAGTGTA | 0.08
TGAGGTATAGTA | -0.129
TGACCAGTTGTA | 0.159
TGAATTGACGTA | -0.0295
TGATTCATAGTA | -0.149
TGATCTATGGTA | -0.0645
TGAGGCGAAGTA | 0.0114
TGATCGTGAGTA | 0.157
TGATACTAGGTA | -0.0149
TGATATCTTGTA | -0.0379
TGACGCCCAGTA | 0.158
TGAATACTTGTA | 0.091
TGATGACGGGTA | -0.0248
TTCAACGTGGTA | 0.604
TGAACGCGTGTA | 0.587
TGAACATTTGTA | 0.134
TGAGGTAACGTA | -0.0392
TGACCTAAGGTA | -0.0575
GGACACGTCGTA | 0.287
TGAGGCCTCGTA | 0.0501
AGACACGTGTTA | 0.993

Sequence | binding signal (log2 normalized fluorescence)
TGAGTAGAAGTA | -0.511
TGATAAGGCGTA | 0.144
TGAACAGCGGTA | 0.115
TGATGGGATGTA | 0.0794
TGACGGTCCGTA | 0.087
TGAGCCCGCGTA | 0.0659
TGAATCAGGGTA | 0.22
TGATTTTAGGTA | -0.303
TGAGATACCGTA | 0.0749
TGACATCCGGTA | 0.231
TGAGTACTGGTA | -0.0462
TGATAAGGAGTA | -0.179
ACCCACGTGGTA | 0.845
TGACAGAAGGTA | 0.162
TGACGGGCAGTA | -3.08e-05
TGACTAATAGTA | -0.149
TGACCGTAAGTA | 0.214
TGATGATCAGTA | 0.194
TGATTGCAAGTA | 0.0964
TGAGCGGAGGTA | -0.0595
TGATCTGGGGTA | -0.00296
TGAATTGGAGTA | -0.206
TGATACTGAGTA | -0.234
TGATCACCGGTA | 0.279
TGATCGACCGTA | 0.0624

Sequence | binding signal (log2 normalized fluorescence)
TAAGATACCACT | 0.161
TGACGAGGAGTA | 0.0602
TGACATGGGCTA | 0.235
TGGCGCATGGTA | 0.571
TGACTCCTAGTA | -0.161
TGATACGCTGTA | 0.216
TGACGGCGAGTA | -0.00993
TGAATGAGAGTA | -0.0627
TGATGTTGAGTA | -0.0114
TGAGACAAAGTA | -0.00541
CCCAAACTTCGA | 0.0995
TGAGTAATTGTA | -0.179
TGAACTTGGGTA | 0.0861
TGACGCAGTGTA | 0.123
TGAGGACCGGTA | -0.014
TGACAGTATGTA | 0.19
TGAGTGTGAGTA | 0.101
TGACGGCCCGTA | 0.0646
GGACGCGTGGTA | 0.64
TGATGTTGTGTA | 0.0276
TACGAATATGGT | 0.0675
TGACAATGAGTA | 0.151
TGAGCCAGCGTA | -0.123
TGAAATCTGGTA | 0.0182
TGATTGGCCGTA | -0.191

Sequence | binding signal (log2 normalized fluorescence)
TGATTTATCGTA | -0.105
TGATTGGAAGTA | -0.105
CGACACGTGCTA | 0.722
TACAACGTGGTA | 0.8
TGATGGACAGTA | -0.0704
TGGTACGTGGTC | 0.364
TGAGGATGAGTA | -0.0995
TTGCATATTTAC | 0.267
TGACATTGGGTT | 0.187
TGAGGCGTGGTA | 0.519
TGAAACGGCGTA | -0.08
TGACATTTAGTA | 0.0518
TGATTTATGGTA | 0.0504
TAGCACGTGTTT | 0.813
TGAGTGAAAGTA | -0.142
TGAAGTGTGGTA | 0.471
TGACCTGACGTA | 0.202
TGAGTGTACGTA | 0.274
TGAGTCCTTGTA | -0.327
TGAATGTCAGTA | 0.158
CGACGCGTGGTA | 0.626
TGACTTTAAGTA | -0.151
TGAGATTTAGTA | -0.239
TGACTCGTAGTA | 0.146
TGATAGGACGTA | -0.191

Sequence | binding signal (log2 normalized fluorescence)
TGAACCTAAGTA | 0.0538
TGACCTCGGGTA | 0.22
TGCAACGTCGTT | 0.19
TGAGAGGAAGTA | -0.00543
TGAAATGCTGTA | 0.351
TGATCGGTGGTA | 0.157
TGAAAAGTAGTA | 0.0765
TGCCACGTGCTT | 0.652
TGAGGATACGTA | 0.0654
TGAACTGAAGTA | 0.0246
TGAATAGTTGTA | -0.0841
TGACACCTGGTC | 0.371
TGATCGGCAGTA | -0.114
TGACTTTACGTA | 0.207
TGATCTCTTGTA | -0.0736
TGAGCCTTCGTA | -0.0709
TGATCGAGGGTA | -0.0166
TGATCTAAAGTA | -0.109
TGACATTCGGTA | 0.183
TGATGGCGAGTA | 0.253
TGAGGCCACGTA | 0.215
TGAATTTGCGTA | -0.00541
TGAATTTCGGTA | -0.0508
TGATACTCCGTA | -0.0605
TGAGCGTAAGTA | 0.00698

Sequence | binding signal (log2 normalized fluorescence)
TGAGAATGGGTA | 0.181
TGAGAGGCTGTA | 0.0572
TGATAGCGGGTA | 0.0571
TGACCTATCGTA | -0.0576
TGAGCACGCGTA | 0.324
TGAAGGCATGTA | 0.376
TGATCGAGAGTA | 0.0768
TGAGAGAGAGTA | -0.334
TGAAAACGTGTA | 0.422
AGACAAGTGGTA | 0.271
TGAGGCACCGTA | 0.154
TGAAATACTGTA | 0.0408
TGATAATAAGTA | -0.172
TGATGTGTCGTA | 0.188
TGAGTAAGAGTA | -0.216
TGAAGGTACGTA | 0.115
TGATAGTAGGTA | -0.255
TGAACTCCCGTA | 0.0712
TGATCGCCTGTA | 0.0287
CACCACGTGGTA | 0.975
TGAGCAGCCGTA | -0.0524
TGAGTAGACGTA | -0.00585
AATGCATTTTTT | 0.535
TGATCACGAGTA | 0.422
TGACAAGTAGTA | -0.00895

Sequence | binding signal (log2 normalized fluorescence)
TGACAAAATGTA | 0.174
TGTCACGGGGTA | 0.659
TGAAGTATGGTA | 0.237
TGACAGGACGTA | 0.0545
TGATTTCCCGTA | 0.0833
TGACATCATGTA | 0.54
TGAAATGTTGTA | -0.0557
TGATCCAAAGTA | -0.00515
TGACCGACTGTA | 0.018
TGATGCCATGTA | 0.22
TGAGCAGTAGTA | -0.0862
TGACACGGGTAA | 0.24
TGAGCATCAGTA | 0.128
TGATTTTACGTA | -0.056
TGATTTTCTGTA | -0.216
TGATCAATGGTA | -0.0293
TGAACCCTTGTA | 0.283
ACCCAATAAGAA | 0.0103
TGATACATAGTA | -0.0443
TGAAAGACCGTA | 0.0326
TGACGCCTGGTA | 0.306
TGAACTTACGTA | 0.181
TGATGTACCGTA | 0.119
TGACAAAGTGTA | 0.184
TGAATCTACGTA | -0.0348
